Results published in PubChem BioAssay AID651820 (National Center for Advancing Translational Sciences (NCATS), 2012).
Among all 340,000 compounds or so, about 12,000 (3.5%) were called active. The inconclusive results got no clear call from the source; some entries with a clear call stand among them for comparison. Calls follow the shape of the dose curve; as a rule, active = well fitted inhibition curve with a large enough effect; inconclusive = small, poorly fitted or top-dose-only effect, or another doubt; inactive = no such curve, though single readings can be large or run the other way. No potency is given beside an inconclusive call; the fits are too rough. Some structures have more than one record in an assay (separate samples or runs), and their calls can disagree.
% is scaled to controls: 0 for no effect and ±100 for the full control effect; potency is read from the fitted curve at half-maximal effect; tags tell the direction and shape of the fitted curve.

Assay: qHTS Assay for Inhibitors of Hepatitis C Virus (HCV)
Conditions: Huh7.5.1 HCVcc-Cre (HCVcc is cell-culture hepatitis C virus) infection, luciferase reporter, 44 h; activity change, negative = inhibition: at 41.8 µM (top of the series) unless noted
How it was run: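 Reporter virus HCVcc-Cre (~0.5 moi) infects cells exposed to compound; seeding density 1,000 cells/well with 4 h settling beforehand. Luminescence, 15 sec read, taken 44 h post-infection following a 15 min RT substrate incubation.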
With `CN(C)[C@@H]1C(=O)C(C(N)=O)=C(O)[C@@]2(O)C(=O)C3=C(O)c4c(O)ccc(Cl)c4[C@@H](O)[C@H]3C[C@@H]12` the Potency was active: 2.82 µM. For `CC(=O)c1c(C)[nH]c(C(=O)Nc2cccc(S(=O)(=O)N3CCOCC3)c2)c1C`, the Potency was inconclusive [inhibitor, full curve]. With `O=C1c2ccccc2C(=O)N1CCc1c(-c2ccccc2)[nH]c2ccccc12` the Potency was inconclusive [inhibitor, partial curve]. With `NC(=O)c1ccsc1NC(=O)c1ccc2c(c1)CCCC2` the Potency was inconclusive [inhibitor, single point]. With `Cc1cccc(C(=O)Oc2ccc3ccc(O)cc3c2)c1` the Potency was inconclusive [inhibitor, single point]. With `CCC(Sc1nc2sc(C(=O)OC)c(C)c2c(=O)n1N)C(=O)NCC1CCCO1` (configuration not stated) the “activity change, negative = inhibition” value was inactive: 4.61%. In the case of `CCCn1c(N)c(C(=O)CN(C)CC(=O)Nc2cccc(F)c2)c(=O)[nH]c1=O`, the “activity change, negative = inhibition” value is reported as inactive: -8.69%. In the case of `O=C1C2C3C=CC(C4CC34)C2C(=O)N1CCCCN1CCN(c2ccc(F)cc2)CC1` (configuration not stated), the Potency is reported as inconclusive [inhibitor, partial curve]. With `C=CCc1cccc(/C=N/NC(=O)c2ccccc2Br)c1O` the Potency was active: 14.1 µM. With `Cc1ccc(N2C(=O)CC(Cc3cc(C)cc(C)c3)C2=O)cc1` (configuration not stated) the “activity change, negative = inhibition” value was inactive: -4.67%. In the case of `CCOC(=O)c1ccc(NC(=S)NCCCN2CCN(C3CCCCC3)CC2)cc1`, the Potency is reported as inconclusive [inhibitor, full curve, poor fit]. For `COc1ccc(F)c(-c2nc(CN3CCC(c4ccccc4)CC3)c(C)o2)c1`, the Potency was inconclusive [inhibitor, single point]. With `NS(=O)(=O)c1ccc(CCNC(=O)CNC(=O)COc2ccccc2)cc1` the “activity change, negative = inhibition” value was inactive: 17.7%. In the case of `O=C(Nc1cc2c(cc1Br)OCCO2)c1ccc(=O)[nH]c1`, the “activity change, negative = inhibition” value is reported as inactive: 6.59%. With `COC(=O)c1sc(NC(=O)c2cc(-c3ccccc3)nc3ccccc23)c(C#N)c1C` the Potency was active: 11.2 µM. In the case of `COc1ccc(-c2n[nH]c(C)c2-c2ccccc2OC)c(O)c1`, the Potency is reported as inconclusive [inhibitor, single point]. With `Cc1c(C(=O)NCCSCc2c(Cl)cccc2Cl)cccc1[N+](=O)[O-]` the Potency was inconclusive [inhibitor, single point]. For `CC(=O)Oc1ccc(C(=O)Nc2ccc3c(c2)C(=O)N(CCC(=O)O)C3=O)cc1`, the “activity change, negative = inhibition” value was inactive: -3.6%. In the case of `O=CC1=C(N2CCOCC2)/C(=C/c2ccc(Cl)cc2)CC1`, the Potency is reported as inconclusive [inhibitor, single point]. With `Cn1cccc1CC(=O)N/N=C/c1ccco1` the “activity change, negative = inhibition” value was inactive: 21.5%. With `O=C(NCCc1c[nH]c2ccccc12)c1cccc(S(=O)(=O)Nc2ccccc2Cl)c1` the “activity change, negative = inhibition” value was inactive: 8.62%. For `O=C(Nc1nc2ccc(Oc3ccccc3)cc2s1)c1cc([N+](=O)[O-])ccc1N1CCOCC1`, the Potency was inconclusive [inhibitor, partial curve]. For `Nc1ccc(C(=O)C(=O)c2ccccc2)cc1`, the “activity change, negative = inhibition” value was inactive: -3.54%. With `CCc1cc(-c2n[nH]c(C)c2-c2nc3ccccc3s2)c(O)cc1OCC(=O)NN` the “activity change, negative = inhibition” value was inactive: 12%. With `COc1ccccc1N1CCN(C(=O)N2CCOCC2)CC1` the Potency was inconclusive [inhibitor, single point]. For `COc1ccc(NC(=O)CN(C)S(=O)(=O)c2ccc3c(c2)OCCO3)c2ncccc12`, the Potency was inconclusive [inhibitor, partial curve]. For `Cc1cc(C)cc(-n2nc(C)cc2N)c1`, the Potency was active: 10 µM. For `CC(=O)c1ccc(N2C(=NC(=O)CCC3CCCC3)SC3CS(=O)(=O)CC32)cc1` (configuration not stated), the “activity change, negative = inhibition” value was inactive: 0.532%. For `COc1cc(C(C)=O)ccc1OCC(O)CNCC1(N2CCCCC2)CCCCC1` (configuration not stated), the Potency was inconclusive [inhibitor, single point]. For `CC(C)C[C@H](NC(=O)c1[nH]cnc1C(=O)N[C@@H](C)c1ccccc1)C(=O)OCc1ccccc1`, the Potency was inconclusive [inhibitor, single point]. For `C[C@@]12C(=O)N(Cc3ccco3)CC(=O)N1[C@H]1c3ccccc3OC[C@@H]1[C@@H]2c1ccccc1`, the “activity change, negative = inhibition” value was inactive: -22.7%. For `CCOC(=O)c1sc(Nc2nc3ccc(OC)cc3s2)cc1C`, the Potency was inconclusive [inhibitor, full curve]. For `Cc1cc(NC(=O)c2cccc(S(=O)(=O)N(C)C)c2)n(-c2ccccn2)n1`, the Potency was inconclusive [inhibitor, partial curve]. With `COc1ccc(CNc2ncnc3sccc23)cc1OC` the Potency was active: 6.31 µM. With `COc1ccc2[nH]c(C)c(CCNC(=S)Nc3cc(C)cc(C)c3)c2c1` the activity change, negative = inhibition was inactive: -19.1% [at 8.37 µM]. For `CN(C)S(=O)(=O)N1CCC(Oc2ccc(C(=O)N3CCCCCCC3)cc2)CC1`, the Potency was inconclusive [inhibitor, single point]. With `Cc1ccc(C(O)c2nc3ccccc3n2C(C)C)cc1` (configuration not stated) the Potency was inconclusive [inhibitor, partial curve]. For `Cc1cccc(C)c1OCc1cc(C(=O)NC2CCC2)no1`, the Potency was inconclusive [inhibitor, single point]. For `CCCOc1ccc(Cl)cc1/C=C1/C(=O)ON=C1C`, the “activity change, negative = inhibition” value was inactive: -0.425%. With `CC/C(C)=N/N1C(=O)c2ccccc2NC1(C)CC` (configuration not stated) the “activity change, negative = inhibition” value was inactive: -2.71%. For `COc1ccc(Cl)cc1NC(=O)COC(=O)c1ccc(Br)o1`, the Potency was inconclusive [inhibitor, single point]. For `Nc1ccc(N2CCN(c3ccc(Cl)c(Cl)c3)CC2)cc1`, the Potency was inconclusive [inhibitor, single point]. In the case of `COC(=O)c1ccc(NC(=O)CN2CCN(CC#N)CC2)cc1`, the “activity change, negative = inhibition” value is reported as inactive: 21.9%. With `C=CCn1c(C)cc(C(=O)COC(=O)c2ccc(N)c([N+](=O)[O-])c2)c1C` the Potency was inconclusive [inhibitor, partial curve, poor fit]. For `CN(C)CCCNC(=O)c1cc2sc3ccccc3c2s1`, the Potency was active: 10 µM. With `O=S(=O)(/C=C/c1ccccc1)N1CCN(c2nc(-c3ccccc3)nc3ccccc23)CC1` the Potency was inconclusive [inhibitor, partial curve]. In the case of `O=S(=O)(CCc1nc2ccccc2[nH]1)c1ccc(Cl)cc1`, the “activity change, negative = inhibition” value is reported as inactive: 1.85%.
